In all, about 130,000 compounds went through this assay and about 550 (0.42%) were called active. The inconclusive results got no clear call from the source; some entries with a clear call stand among them for comparison. Calls follow the shape of the dose curve; as a rule, active = well fitted inhibition curve with a large enough effect; inconclusive = small, poorly fitted or top-dose-only effect, or effect the other way; inactive = flat fitted curve, though single readings scatter. Potencies of inconclusive entries are left out as doubtful fits.
Assay: qHTS Assay for Inhibitors of the ERK Signaling Pathway using a Homogeneous Screening Assay; Stimulation with EGF; also: nearly all actives have a fitted effect of over 55% in size;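 as to activity change, negative = inhibition: plate controls were stimulated vehicle wells for no effect and unstimulated vehicle basal for full effect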
Conditions: HEK293-V1b, EGF-stimulated phospho-ERK AlphaScreen; activity change, negative = inhibition: at the top concentration
Method in brief: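 Phospho-ERK1/2 measured by AlphaScreen (SureFire) after 5 min 25 nM EGF stimulation of V1b-expressing HEK293 cells preincubated 30 min at 37C with titrated compounds; data scaled to DMSO and EGF controls, Hill-fitted AC50.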
Potency is read from the fitted curve at half-maximal effect; tags tell the direction and shape of the fitted curve.

Structure (SMILES) | Potency | activity change, negative = inhibition
COc1ccc(N2CCN(C(=O)c3cccc(N4C(=O)C5CC=CC(C)C5C4=O)c3)CC2)cc1 (stereo not drawn) | inconclusive [activator, single point] | –
CCOc1ccc2c(c1)-c1c(ssc1=S)C(C)(C)N2C(=O)CSC1=NCCS1 | active: 17.8 µM | –
CCN(CC(=O)NCc1ccc(F)cc1)C(=O)/C=C/c1cccs1 | inconclusive [inhibitor, single point] | –
Cc1c(C(=O)N2CCCCC2C)sc2ncnc(N3CCc4ccccc4C3)c12 (stereo not drawn) | inconclusive [inhibitor, single point] | –
CCOC(=O)c1c(C)n(C)c2ccc(OC)c(NC(=O)CCN3CCC(Cc4ccccc4)CC3)c12 | – | inactive: -5.96% [at 57.5 µM]
C=CCN1C(=O)N/C(=C/c2ccc(N3CCOCC3)o2)C1=O | inconclusive [inhibitor, single point] | –
COC(=O)c1cccc(NC(=O)/C=C/c2ccc3c(c2)OCO3)c1 | inconclusive [inhibitor, single point] | –
CCOC1OC(=O)C(Cl)=C1Nc1ccccc1C (stereo not drawn) | inconclusive [inhibitor, single point] | –
COC(=O)CCSCC(=O)N1N=C(c2ccc(OC)cc2)CC1c1cccc(OC)c1OC (stereo not drawn) | inconclusive [inhibitor, single point] | –
CC(/C=N/N1CCN(Cc2ccccc2)CC1)=C\c1ccccc1 | inconclusive [inhibitor, single point] | –
C#CCn1cc(/C=N/Nc2nc3ccccc3[nH]2)c2ccccc21 | active: 25.1 µM | –
CC[C@H](C)C(C(=O)N1CCN(C(=O)OC(C)(C)C)CC1)n1cc(C(CO)NC(=O)OC(C)(C)C)nn1 (stereo partly drawn) | inconclusive [activator, single point] | –
CN1/C(=C\C=C2/SC(=S)NC2=O)C(C)(C)c2ccccc21 | active: 25.1 µM | –
CCN1CCN(c2ccc(NC(=O)c3ccc(F)cc3)cc2Cl)CC1 | – | inactive: 2.75%
COC(=O)[C@H]1[C@H]2CC3c4[nH]c5ccccc5c4CCN3C[C@@H]2CC[C@@H]1O (stereo partly drawn) | – | inactive: -3.2%
CN(c1ccccc1)S(=O)(=O)c1cccc(NC(=O)c2ccc3ncsc3c2)c1 | inconclusive [inhibitor, single point] | –
CC(C)CNC(=S)N1CCC(C(=O)c2ccc3c(c2)OCCO3)CC1 | inconclusive [inhibitor, single point] | –
C/C=C/Cn1c(SC)nc2c1c(=O)[nH]c(=O)n2C | inconclusive [activator, partial curve] | –
Oc1ccc2ccccc2c1N=Nc1nccs1 | active: 12.6 µM | –
CCCCNC(=S)N1CCN(c2ccc(C(C)=O)cc2)CC1 | inconclusive [inhibitor, single point] | –
O=C(Nc1ccccc1)/C(=C\c1ccc2c(c1)OCO2)NC(=O)c1ccco1 | inconclusive [inhibitor, partial curve] | –
Fc1ccc2[nH]c3c(Cl)ncnc3c2c1 | inconclusive [inhibitor, single point] | –
CCOC(=O)c1cc(NC(=O)COc2ccc([N+](=O)[O-])cc2)cc(C(=O)OCC)c1 | – | inactive: -1.3%

Structure (SMILES) | Potency | activity change, negative = inhibition
COCCNc1ncnc2c1cnn2-c1ccc(Cl)cc1 | inconclusive [inhibitor, single point] | –
Cc1cccc(/C=N/Nc2nncc3ccccc23)c1 | inconclusive [inhibitor, partial curve] | –
COc1ccccc1NC(=O)Nc1ccc(CC#N)cc1 | – | inactive: 0.653% [at 57.5 µM]
Cc1cc(C)c(C#N)c(SCc2ccccc2)n1 | inconclusive [activator, single point] | –
COC(=O)c1ccc(C(NC(=O)OCc2ccccc2)/C(F)=C/[C@@H](C)C(=O)N(C)Cc2cccnc2)cc1 (stereo partly drawn) | – | inactive: -1.08%
CS(=O)(=O)Nc1cccc(-c2nc(NCc3cccs3)c3ccccc3n2)c1 | – | inactive: 18.1%
CCn1nc(NC(=O)c2cccs2)c2cc3ccccc3nc21 | inconclusive [activator, single point] | –
COC(=O)c1cnc(Nc2cccc(C(F)(F)F)c2)c([N+](=O)[O-])c1 | inconclusive [inhibitor, partial curve] | –
CCc1cc(-c2nc(N)ncc2-c2ccc(Br)cc2)c(O)cc1OC | inconclusive [inhibitor, single point] | –
COC(=O)[C@H](COC(C)(C)C)NC(=O)O[C@@H]1C(=O)c2cc(Br)ccc2O[C@H]1c1cccc(OC)c1 | inconclusive [inhibitor, single point] | –
N#C/C(=C\c1ccc(-c2ccccc2[N+](=O)[O-])o1)C(=O)Nc1nc(-c2cccs2)cs1 | inconclusive [inhibitor, partial curve] | –
C/C(=N\NC(=O)c1ccc(NS(=O)(=O)c2cccs2)cc1)c1cccs1 | inconclusive [inhibitor, single point] | –
CC(=O)c1sc(NC(=O)CCOc2ccccc2)nc1C | – | inactive: -12.1%
CCOC(=O)N1CCN(c2ncnc3c2cnn3-c2ccc(OC)cc2)CC1 | inconclusive [activator, single point] | –
O=C(COc1ccccc1F)NCc1ccc(-n2cccc2)cc1 | inconclusive [inhibitor, single point] | –
CN(C)c1ccc(/C=N/NC(=O)C(O)c2ccc(Br)cc2)cc1 (stereo not drawn) | – | inactive: 13.4%
Cc1cccc(N=Nc2c(C)c(C#N)c(O)[nH]c2=O)c1 | – | inactive: -7.11%
COC1=CC(C)C2CC3OC(=O)CC4C(C)=C(OC)C(=O)C([C@]2(C)C1=O)[C@]34C (stereo partly drawn) | – | inactive: 21.7%
COc1ccc(N2CCN(CC(=O)c3c(C)n(C)c4ccc(OC)cc34)CC2)cc1 | inconclusive [inhibitor, single point] | –
O=[N+]([O-])c1cccc(-n2cccc2/C=N/Nc2nc(N3CCCCC3)nc(N3CCCCC3)n2)c1 | inconclusive [inhibitor, single point] | –
CCn1c(Cl)c(C=O)s/c1=N\S(=O)(=O)c1ccccc1 | active: 17.8 µM | –
COc1ccc(-c2cc(-c3nnc(COC(=O)CC4CC5CCC4C5)o3)c3ccccc3n2)cc1OC (stereo not drawn) | inconclusive [activator, partial curve] | –
O=C(/C=C/c1ccccc1)NC(=S)Nc1ccc(CN2CCOCC2)cc1 | – | inactive: -3.45%

Structure (SMILES) | Potency | activity change, negative = inhibition
CC(C)(C)C(=O)NCCc1nc2ccccc2n1CC(=O)c1ccc(Cl)cc1 | inconclusive [inhibitor, partial curve] | –
CCCCN1C(=O)/C(=C/C=C2\Oc3ccccc3N2CC)SC1=S | inconclusive [inhibitor, full curve] | –
COc1cc(-c2nc3ccccn3c2/N=C/c2cc(OC)c(O)cc2Cl)ccc1O | inconclusive [inhibitor, single point] | –
CN1Cc2c(C(=O)OC(C)(C)C)ncn2-c2ccsc2C1=O | – | inactive: -12.4%
COc1ccc(CN(CCC(c2ccc(F)cc2)C2CCOC(C)(C)C2)C(=O)c2ccco2)cc1 (stereo not drawn) | inconclusive [inhibitor, partial curve] | –
CCOC(=O)c1sc(Nc2nc3c(OC)cccc3s2)cc1C | active: 25.1 µM | –
O=C1c2ccccc2C(=O)C12OC2c1cccc2ccccc12 (stereo not drawn) | inconclusive [inhibitor, single point] | –
Cc1cccc(NC(=O)/C(C#N)=C\c2ccc(C(=O)O)cc2)c1 | inconclusive [inhibitor, full curve] | –
Cc1ccc(NC(=O)COC(=O)c2cccc3c2C(=O)c2ccccc2C3=O)c(C)c1 | inconclusive [inhibitor, partial curve] | –
CCN(CC)Cc1ccc(Nc2ccnc3cc(Cl)ccc23)cc1O | – | inactive: 3.54%
O=C(CCCN1C(=O)c2cccc3cccc(c23)C1=O)N1CCN(c2ncccn2)CC1 | inconclusive [inhibitor, partial curve] | –
COC(=O)N/N=C/c1cccc(OCCSc2ccc(Cl)cc2)c1 | inconclusive [inhibitor, single point] | –
CC1(C)C(=O)C2C[C@]3(O)C4=CC(=O)OC(c5ccoc5)[C@]4(C)CCC3[C@](C)(C2=O)C1CC(=O)O (stereo partly drawn) | – | inactive: 3.48%
O=C(N/N=C/c1ccncc1)c1ccc(COc2cccc3cccnc23)cc1 | inconclusive [inhibitor, single point] | –
CCCCCCCCCCCCCCCC(=O)NCC(COP(=O)([O-])OCC[N+](C)(C)C)OCC (stereo not drawn) | active: 25.1 µM | –
CCCC1CCC(c2ccc(/C(N)=N/O)cc2)CC1 (stereo not drawn) | inconclusive [activator, partial curve, poor fit] | –
CC(=O)c1c(C)[nH]c(C(=O)COC(=O)c2cc(S(=O)(=O)N(C)c3ccccc3)ccc2Cl)c1C | inconclusive [inhibitor, single point] | –
CCOC(=O)c1c(NC(=O)/C=C/C(=O)O)sc(C)c1-c1ccc(C(C)(C)C)cc1 | inconclusive [inhibitor, single point] | –
Nc1nn2c(-c3ccccc3)cc(=O)[nH]c2c1N=Nc1ccc(Br)cc1 | inconclusive [inhibitor, partial curve] | –
O=C1C=C(Nc2ccc(O)cc2)C(=O)c2ccccc21 | inconclusive [inhibitor, single point] | –
OC[C@H]1O[C@@H](O[C@@H]2[C@@H](CO)O[C@](O)(CO)[C@H]2O)[C@H](O)[C@@H](O)[C@H]1O | – | inactive: -2.37%
Cc1c(-c2nc(-c3cccnc3)no2)cccc1[N+](=O)[O-] | inconclusive [inhibitor, single point] | –

From PubChem BioAssay AID1454 (National Center for Advancing Translational Sciences (NCATS), 2008)
